This is an account of results in ChEMBL document CHEMBL4888484, “Replenishing the malaria drug discovery pipeline: Screening and hit evaluation of the MMV Hit Generation Library 1 (HGL1) against asexual blood stage Plasmodium falciparum ,using a nano luciferase reporter read-out” (2022).

Among all 150,000 compounds or so, about 540 (0.36%) showed an effect of 50% or more. The list shows a part of the results.

For the assay, the system named is Plasmodium falciparum. The assay can be described thus: Primary screen in NF54 nanoGlo assay, in single point, at 2uM, 72h; a lower Z score goes with more inhibition. It is filed as functional, Erythrocyte. As to conditions: timepoint 72 hour.
On to `Cc1ccc(C2C(=O)N(C3CCCC(C)C3C)CC(=O)N2CCc2ccccc2)cc1` (stereo not drawn), for which the “% Inhibition” value was -1% and the Z score came out at 0.07.
The like results for `O=C(Nc1csc(-c2ccncc2)n1)[C@@H]1CCCO1` were, in that order, -10% and 1.79.
`CC(C)n1ncnc1-c1ccc(C(=O)N2CCC[C@H](C(N)=O)C2)cc1`: the “% Inhibition” value was -4% and the Z score was determined as 0.69.
Taken in the same sequence, the figures for `CC(C)(C)OC(=O)N[C@H]1CN(C(=O)CO)C[C@@H]1c1cccc(F)c1` were -4% and 0.49.
For the molecule `O=C1NC2(CCN(C(=O)c3cnccc3C(F)(F)F)CC2)CO1`, the “% Inhibition” value was -8% and the Z score was 1.1.
Regarding `O=C(C(O)c1ccccc1)N1N=C(C2CCCCC2)CC1(O)C(F)(F)F` (stereo not drawn), the “% Inhibition” value worked out at 16% and the Z score is on record as -1.86.
Taken in the same sequence, the figures for `O=C(c1ccco1)N1CC[C@H](OCc2ccccc2)C1` were -9% and 1.03.
The like results for `Cc1cc(N2CCOCC2)c(F)cc1[C@](C)(O)C#Cc1ccccc1` were, in that order, -7% and 0.97.
Taken in the same sequence, the figures for `O=C(c1cnn2c1OCCC2)N1CCCCCCC1` were -8% and 1.65.
On to `COc1cccc(NC(=O)Nc2cnsn2)c1`, for which the “% Inhibition” value is reported as 0% and the Z score is -0.07.
On to `C[C@@H]1CN(C(=O)c2nc3ccc(Cl)cn3c2CNCCc2ccccc2F)C[C@H](C)O1`, for which the “% Inhibition” value is recorded as -11% and the Z score stood at 1.88.
Regarding `COc1cc(-c2nn(CNc3ccccc3)c(=S)o2)cc(OC)c1OC`, the “% Inhibition” value stood at 7% and the Z score is given as -0.82.
As to `CC1=NN(c2ccccc2)C(=O)C12Cc1ccc(Cl)cc1N1CCCCC12` (stereo not drawn), the “% Inhibition” value was 8% and the Z score is given as -1.22.
With `CC(C)Cn1ccc(C(=O)N2C[C@@H](C)Cn3ncnc32)n1`, the “% Inhibition” value was -2% and the Z score is 0.34.
For the molecule `CC(=O)NCC(=O)Nc1c(C)cnn1C1CCCC1`, the “% Inhibition” value is -6% and the Z score amounted to 1.03.
The like results for `CCCCn1nc(CC2CCN(C)CC2)nc1-c1cnc(C)cn1` were, in that order, 1% and -0.14.
As to `O=C(NCCC(=O)N1CCCCCC1)c1ccc(=O)n(-c2ccccc2F)n1`, the “% Inhibition” value is 0% and the Z score is given as -0.05.
For `COc1ccc(CN2C(=O)C3Cc4ccccc4CN3CC2(C)C(=O)NC2CCCCCC2)cc1` (stereo not drawn), the “% Inhibition” value is on record as -4% and the Z score is reported as 0.41.
Taken in the same sequence, the figures for `CN(Cc1ccon1)[C@H]1CCN(C(C)(C)C)C1=O` were -6% and 0.78.
Taken in the same sequence, the figures for `CN(C)c1ccnc(NC(=O)NC(C)(C)C(=O)NCC(C)(C)C)n1` were -12% and 2.29.
As to `Cc1ccc(OCC(=O)N2CC3CC2CO3)cc1` (stereo not drawn), the “% Inhibition” value is reported as -20% and the Z score was 2.37.
The like results for `CCOc1ccc(C(=O)N2CCCN(c3ccc(=O)n(-c4ccc(C)c(C)c4)n3)CC2)cc1OCC` were, in that order, 19% and -2.16.
Turning to `O=C(OCc1ccccc1)N1CCN(C(=O)c2cccc3[nH]c(CO)nc23)CC1`, the “% Inhibition” value is 3% and the Z score was -0.6.
The like results for `Oc1c(Cl)cc(Cl)cc1CNc1cnc2ccccc2c1` were, in that order, 0% and 0.02.
With `CCOc1ccccc1NC(=O)CS(=O)(=O)CC(=O)Nc1ccccc1`, the “% Inhibition” value came out at 1% and the Z score is reported as -0.13.
Taken in the same sequence, the figures for `CCC(CC)C(=O)N1C[C@@H]2OCC(=O)N(CC3CC3)[C@@H]2C1` were -6% and 0.96.
The like results for `O=C(NC[C@@H](c1ccsc1)N1CCCC1)c1cccc(Cl)c1` were, in that order, 20% and -2.31.
As to `CCN(C(=O)[C@H]1CCCN(C2CCN(Cc3ccncc3)CC2)C1)C(C)C`, the “% Inhibition” value is on record as -8% and the Z score worked out at 1.71.
Taken in the same sequence, the figures for `Cc1oc(-c2ccc(C(=O)NCCN(C)C)cc2)nc1CN1CCc2ccccc21` were -14% and 1.84.
On to `CCOc1ccc(N2C(=O)C[C@H](NC3CCN(c4ncc(C(F)(F)F)cc4Cl)CC3)C2=O)cc1`, for which the “% Inhibition” value was 4% and the Z score is -0.43.
The like results for `Cc1nc(-c2csc(S(=O)(=O)N3CCC[C@H](C(=O)N4CCN(C)CC4)C3)c2)no1` were, in that order, 2% and -0.47.
The like results for `CCOC(=O)CNS(=O)(=O)CC1CCCCC1` were, in that order, -11% and 1.63.
As to `COCC1=CCN(C(=O)c2c(O)c(C)nc3ccccc23)CC1`, the “% Inhibition” value is listed as -2% and the Z score turned out to be 0.24.
The like results for `Cc1nc2nccnc2cc1Br` were, in that order, 10% and -1.12.
Taken in the same sequence, the figures for `Cc1cc(C(=O)Cn2nnc3ccccc3c2=O)c(C)n1[C@H]1CCS(=O)(=O)C1` were -3% and 0.47.
Take `O=C(CCc1ccc(F)cc1)NC[C@H]1CCCCCN1`: the “% Inhibition” value is on record as -7% and the Z score came out at 1.21.
Turning to `Nc1ncncc1CNC(=O)c1c(F)cc(C(F)(F)F)cc1F`, the “% Inhibition” value is -12% and the Z score is 1.45.
In the case of `O=S(=O)(CCc1cccs1)N[C@H]1CCN(CC2CCCC2)C1`, the “% Inhibition” value is recorded as -2% and the Z score was 0.24.
The like results for `Cn1cnc(C(=O)N2CCC(OCc3ccc(Cl)c(Cl)c3)CC2)cc1=O` were, in that order, 3% and -0.45.
As to `CCOc1ccc(N2C[C@@H](C(=O)NCCOc3ccccc3)CC2=O)cc1`, the “% Inhibition” value is on record as 6% and the Z score was -0.94.
The like results for `CC(=O)c1c(C)[nH]c(C(=O)N2CCCn3nc(C)cc32)c1C` were, in that order, -3% and 0.46.
Taken in the same sequence, the figures for `CS(=O)(=O)CC1(CNc2ncccc2F)CC1` were 2% and -0.21.
For `CC(C)C(=O)N1CCC(NCc2c[nH]nc2-c2cccs2)CC1`, the “% Inhibition” value was -12% and the Z score is 2.08.
Regarding `CCCn1nc(C)c(Cn2cc(-c3nccs3)nn2)c1C`, the “% Inhibition” value is listed as -21% and the Z score turned out to be 1.85.
For the molecule `CN(CC(C)(C)CO)c1ncc(C(=O)O)cc1Cl`, the “% Inhibition” value was found to be 6% and the Z score is -0.74.
On to `CC(C)C[C@H](NC(=O)C1CCC(C(C)C)CC1)C(=O)O` (stereo partly drawn), for which the “% Inhibition” value is 33% and the Z score is listed as -3.69.
Turning to `Cc1nc(C(=O)NC[C@H]2CN(C3CC3)CCO2)no1`, the “% Inhibition” value is -13% and the Z score came out at 1.72.
Taken in the same sequence, the figures for `Cc1ccc(C(=O)N2CCC3(CN(C)C3)C2)c2c1CCC2` were -7% and 0.85.
For `CC(C)(C)OC(=O)N[C@H]1CCN(C(=O)c2c(F)ccc(F)c2F)C1`, the “% Inhibition” value is on record as 2% and the Z score is given as -0.47.
For the molecule `CCCS(=O)(=O)N1CC[C@H](c2noc(COCc3ccccc3)n2)C1`, the “% Inhibition” value is recorded as -10% and the Z score is 1.89.
As to `N#CC1CCCCC1OC(=O)CC1CC2CCC1C2` (stereo not drawn), the “% Inhibition” value is reported as -3% and the Z score worked out at 0.41.
The like results for `O=S(=O)(c1ccccc1F)N1CCN(c2nc3nccc(-c4ccc(Cl)c(Cl)c4)n3n2)CC1` were, in that order, -29% and 2.53.
Taken in the same sequence, the figures for `CC1(C)CC(=O)c2cc(C(=O)NCC3CC3)c(=O)[nH]c2C1` were -6% and 0.76.
Turning to `NC(=O)COc1cccc(C(=O)N2CCC[C@H]2c2cccc3ccccc23)c1`, the “% Inhibition” value is recorded as 23% and the Z score was -2.52.

For orientation: % Inhibition means the drop in the measured response relative to a control, in per cent.
